Hit rate of the full screen: of about 48,000 compounds, about 450 (0.94%) were called active. Not shown: some 19% with an inconclusive outcome. Calls come from the whole dose curve; as a rule, active = well fitted inhibition curve with a large enough effect; inconclusive = small, poorly fitted or top-dose-only effect; inactive = no such curve, though single readings can be large or run the other way. This is one part of the list.
assay: Primary qHTS for Identification of Small Molecule Inhibitors of Huntingtin Promoter Activity; settings: HEK293 HTT promoter firefly luciferase reporter (activity 0% = vehicle and -100% = no light), 24 h; series mostly up to 57.5 µM; activity change, negative = inhibition: at the top concentration; note: nearly all actives have a fitted effect of over 50% in size
Summary of the method: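 HEK293 luciferase promoter-reporter cells (2,500/well) plated 24 h, then compounds added at up to 57.5 uM final for 24 h at 37 °C. Firefly luminescence by Dual-Glo, normalized to vehicle (0%) and zero RLU (-100%).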

Activity change, negative = inhibition, inactive:
CC1CCC(Nc2nc3c(-c4ccc(Cl)cc4)nnn3c3ccccc23)CC1 (stereo not drawn) -13.3%, CC(=O)c1ccc(NC(=O)CN2C(=O)CCc3ccccc32)cc1 -12.1%, CC(=O)Nc1ccc(/C=C/c2nc(-c3ccccc3O)n(-c3ccccc3)n2)cc1 -9.55%, COc1ccccc1CNS(=O)(=O)c1ccc2c(c1)NC(=O)C(C)C(=O)N2 (stereo not drawn) -18.3%, Cc1cccc(-c2nc(C)c(CCNC(=O)C(=O)Nc3cccc(Cl)c3C)s2)c1 12.9%, O=C(Cn1cc(SCc2ccc(C(F)(F)F)cc2)c2ccccc21)N1CCOCC1 4.6%, Cc1ccc(-c2nc(-c3cc4c([nH]c3=O)CC(C)(C)CC4=O)sc2C)cc1 -9.25%, CCCCSc1nc(-c2ccc(OC)cc2)ccc1C#N -28%, COC(=O)c1ccccc1NC(=O)Cn1c(CCC(=O)O)ccc1-c1cccs1 -17.9%, CCOc1ccc(N(C)C(=O)CS(=O)(=O)c2cccc3nsnc23)cc1 -17.1%, COC(=O)CSc1ncc2c(n1)-c1ccccc1N(Cc1ccccc1C)S2(=O)=O -5.83%, O=C1CCC(N2C(=O)c3ccccc3C2=O)C(=O)N1 (stereo not drawn), COc1ccc2nc3oc(C(=O)N4CCN(c5cc(C)ccc5C)CC4)cc3cc2c1 43.7%, COc1ccccc1N1CCN(C(=O)C(CCSC)NS(=O)(=O)c2ccc3c(c2)oc(=O)n3C)CC1 (stereo not drawn) -16%, CC(C)Oc1ccc(CNC(=O)CCCN2C(=O)CCn3nc(-c4cccn4C)cc32)cc1 -3.39%, O=C(c1ccco1)n1nc(-c2ccccc2)nc1NCc1ccc(Cl)cc1 0.154%, CCc1ccc(NCc2cc3ccc(OC)cc3n(CC(=O)Nc3ccc(F)cc3F)c2=O)cc1 -28.6%, CCC(=O)N1c2ccccc2CC1C(=O)N1CCN(c2cccc(Cl)c2)CC1 (stereo not drawn) -8.1%, COc1cccc(CNCCSc2nnnn2C)c1OCc1ccccc1Cl -22%, COc1cccc(CNS(=O)(=O)c2ccc3c(c2)CCN3C(=O)C2CCC2)c1 -22%, O=C(Nc1ccc(F)cc1)N1CCN(c2ccccc2F)CC1 20.3%, Cc1cc(=O)[nH]c2nnc(SCc3ccc(F)cc3)n12 -14.2%, Cc1ccc(C)c(S(=O)(=O)c2nnn3c2nc(Nc2ccc(C)c(C)c2)c2sccc23)c1 -3.25%, CCOC(=O)c1ccc(-n2c(CCC(=O)O)ccc2-c2ccc(Br)cc2)cc1 -7.24%, COc1ccc(Cn2c(SCC(=O)NCc3ccc(Cl)cc3)nc3ccsc3c2=O)cc1 -0.214%, CC(C)(C)CC(C)(C)c1ccc(O)c(-n2nc3ccccc3n2)c1 2.13%, O=C(NCc1cccs1)c1ccc(Cn2c(SCc3ccccc3)nc3cccnc32)cc1 -30.3%, Cc1cc(Cl)ccc1OCC(=O)Nc1c(Cl)ccc2nsnc12 -32%, COc1ccccc1-c1nc(SCC(=O)NCc2ccc(C)cc2)c2c(=O)n(C)c(=O)n(C)c2n1 27.9%, O=C(COc1ccccc1F)Nc1ccc2oc(-c3cccc(Cl)c3)nc2c1 21.2%, Cc1ccc(-c2ccc(=O)n(CC(=O)Nc3ccc(C)cc3Cl)n2)cc1 -17.9%, COc1cccc(/C=C/c2nc(C#N)c(NCCc3ccccc3)o2)c1 18.6%, Clc1cccc(N2CCN(c3nc4ccccc4n4nnnc34)CC2)c1 -8.04%, COc1ccc(C2C=C(c3ccccc3)Nc3nc(NC(=O)c4cccc([N+](=O)[O-])c4)nn32)cc1 (stereo not drawn) -14.9%, O=C1[C@@H]2[C@H]3CC[C@H](C3)[C@@H]2C(=O)N1CCCCN1CCN(c2ncccn2)CC1 -2.58%, Cc1ccc(OCC(=O)Nc2cccc(-c3nc4ccccc4s3)c2)cc1 84.2%, Cc1c(C(=O)NCc2ccccc2)sc2nc3n(c(=O)c12)CCCCC3 34.5%, COc1cccc(CNC(=O)c2sc3nc(C)cc(C)c3c2-n2cccc2)c1OC -16.7%, CCOC(=O)c1ccc(NC(=O)C2CCCN(c3ncnc4onc(-c5ccc(F)cc5)c34)C2)cc1 (stereo not drawn) -24.7%, CCOC(=O)COc1ccc(CC)cc1C(=O)c1ccn2nc(-c3ccccc3)cc2n1 -7.32%, COC(=O)c1sccc1S(=O)(=O)N1CCN(c2cc(Cl)ccc2C)CC1 -19.4%, COC(=O)C(Cc1c[nH]c2ccccc12)NC(=O)COc1cccc(C)c1 (stereo not drawn) -0.167%, Cc1ccc(-c2n[nH]c3c2C(c2ccc(C(C)(C)C)cc2)NC3=O)cc1 (stereo not drawn) -15.4%, Cc1nn(S(=O)(=O)c2ccc(C(C)(C)C)cc2)c(C)c1S(=O)(=O)N1CCCCCC1 -3.54%, COCCNC(=O)CCn1c(=O)c2cc(OC)c(OC)cc2n(CC(=O)Nc2ccc(Cl)cc2F)c1=O -26.1%, Cc1ccc(NC(=O)c2oc3ccc(S(=O)(=O)N4CCC5(CC4)OCCO5)cc3c2C)cc1C -9.25%, CCC1CN(C(=O)N2CCC(C(=O)NCc3ccc(N(C)C)cc3)CC2)c2ccccc2O1 (stereo not drawn) -28.1%, CCCCC(=O)NCc1nc2cccnc2n1Cc1ccc(OC)cc1 -2.82%, COc1cccc(Nc2ccc3cc(S(=O)(=O)N4CCC(C)CC4)ccc3n2)c1 -12.2%, CCCOc1cccc(C(=O)Nc2cccc(-c3nc4ncccc4o3)c2C)c1 -4.92%, CCn1cc2nc(SCC(=O)Nc3ccc(OC)c(OC)c3)n(Cc3ccc(Cl)cc3)c(=O)c2n1 -30.3%, CC(=O)c1cccc(NC(=O)C2CCN(C(=O)c3cnn(-c4ccccc4)c3-n3cccc3)CC2)c1 -29.8%, Cc1c(C(=O)NCc2ccccc2Cl)sc2nc3n(c(=O)c12)CCCCC3 9.44%, COc1ccc(-c2cc(-c3ccc(F)cc3)nc3c2COc2ccc(F)cc2-3)cc1 -6.41%, COc1ccc(-c2oc3ncn4nc(-c5ccccc5O)nc4c3c2-c2ccc(OC)cc2)cc1 -1.92%, O=C(NCc1ccccc1)C1CCCN(S(=O)(=O)c2cccc3nsnc23)C1 (stereo not drawn) -19.8%, CCOc1ccc(NC(=O)CN2C(=O)CC(C)Sc3ccccc32)cc1 (stereo not drawn) -10.9%, Cc1ccc2c(c1)C(Cc1ccccc1F)C(=O)N2 (stereo not drawn) -18.6%, COc1ccc(CCNC(=O)C(CC(C)C)N2Cc3ccccc3C2=O)c(OC)c1OC (stereo not drawn) -22.8%, CCn1cc(CCC(=O)NCc2ccc(C)cc2)c2ccccc21 -15.2%, CC(C)Oc1ccccc1C1C=C(C(=O)O)Nc2ncnn21 (stereo not drawn) -20.8%, COc1ccc(CCn2c3c(c(=O)[nH]c2=O)C(NC(=O)c2ccccc2F)(C(F)(F)F)C(=O)N3)cc1OC (stereo not drawn) -10.4%, COc1cc2c(=O)n(Cc3ccccc3Cl)c(=O)n(CC(=O)Nc3ccc(C)c(C)c3)c2cc1OC -0.307%, Cc1cccc(C(=O)Nc2cc(-c3nc4cccnc4s3)ccc2C)c1 1.05%, COc1ccc(C)cc1NC(=O)C1CCN(S(=O)(=O)c2ccc3[nH]c(=O)oc3c2)CC1 -12.7%, COc1ccc(N2CCN(C(=O)c3cn(C)c4ccc(S(=O)(=O)N(C)C5CCCCC5)cc4c3=O)CC2)cc1 -6.47%, COc1ccc(CNC(=O)C2CCN(S(=O)(=O)c3c(C)noc3/C=C/c3cccs3)CC2)cc1 -18.7%, Cc1ccccc1NC(=O)CCOc1ccccc1 58.9%, Cn1cc(-c2cc3n(n2)CCC(=O)N3CCCC(=O)Nc2ccccc2Cl)c2ccccc21 -0.146%, Cc1ccc(NC(=O)c2cc(CN3CCOCC3)on2)cc1Cl 27%, Cc1ccccc1S(=O)(=O)Cc1ccc(C(=O)NCc2ccccc2Cl)o1 -24.5%, Nc1nn(-c2ccccc2)nc1C(=O)OCc1ccccc1Br 4.52%, COc1ccccc1N1CCN(CCCNc2cc(=O)n(C)c(=O)n2C)CC1 4.69%, O=C(c1cccs1)c1cn(CCOc2ccc(F)cc2)c2ccccc12 -26.8%, CCOC(=O)c1c(C)[nH]c(C)c1S(=O)(=O)NCC(=O)Nc1ccc(CC)cc1 -9.57%, O=C(Cn1cnc2onc(-c3ccc(F)cc3)c2c1=O)N1CCN(c2ccccc2F)CC1 -22.5%, CCOC(=O)c1noc2ncn(CC(=O)Nc3cc(Cl)ccc3OC)c(=O)c12 -3.93%, O=C(O)Cc1sc(Nc2ccc(C(=O)O)cc2)nc1-c1ccccc1 47.8%, CCOc1ccccc1CNC(=O)CCCN1C(=O)COc2ccc(C)cc21 -18%, COc1ccc(-c2cn(-c3ccc(C)cc3)c(S(=O)(=O)CC(=O)Nc3ccccc3)n2)cc1 9.47%, Cc1ccc(CNC(=O)CN(C)S(=O)(=O)c2ccc(Br)s2)cc1 1.17%, Cc1oc2ncn(CC(C)C)c(=O)c2c1C(=O)Nc1cccc(C(F)(F)F)c1 -1.6%, O=C(Nc1ccc(Cl)c(Cl)c1)c1cc(S(=O)(=O)N2CCN(c3cccc(Cl)c3)CC2)ccc1F -10.1%, O=C(NCCCCc1ccccc1)c1nn(-c2ccccc2F)nc1CO -23.7%, Cc1nn(CCC(=O)NCc2cccc(Br)c2)c(=O)c2nn(-c3ccccc3)c(C)c12 -10%, CCn1c(=O)c2sccc2n2c(CCC(=O)N3CCN(c4ccccc4OC)CC3)nnc12 3.61%, COc1ccc(-c2nnc(SCC(=O)Nc3ccccc3C)o2)cc1OC 4.88%, CCCOc1ccc(C(=O)NCC(c2ccc(OC)cc2)N2CCCCC2)cc1 (stereo not drawn) -10.4%, CC(C)NC(=O)Cn1ccc2cc(S(=O)(=O)N3CCCCCC3)ccc21 -20.9%, O=S(=O)(c1ccccc1)c1nc(-c2cccs2)oc1N1CCCCC1 -34.6%, Cc1cccc(OCCCSc2nc(-c3ccc(C(C)(C)C)cc3)nc3cc(=O)[nH]n23)c1C 4.64%, C1Cc2[nH]nc(-c3nn[nH]n3)c2C1 0.93%, O=C(O)[C@H](CC(=O)N1C[C@@H]2CCCC[C@H]2C1)Cc1ccccc1 13.3%, CCCCCn1c(=O)[nH]c2cc(C(=O)NCc3ccc(F)cc3)ccc2c1=O -2.77%, Cc1cccc(-n2c(=O)c3c(c4cc(C)ccc4n3C)n(CC(=O)Nc3ccccc3Cl)c2=O)c1 -15.2%, CC(C)c1ccc(S(=O)(=O)c2nnn3c2nc(N2CCOCC2)c2sccc23)cc1 -5.75%, COc1ccc(CCC(=O)NCc2nc3cccnc3n2Cc2cccc(OC)c2)cc1 -2.86%, COc1ccc(Cl)cc1NC(=O)Cn1nc(C(F)(F)F)c2c1CCC2 -27.8%

— PubChem BioAssay AID1508623 (National Center for Advancing Translational Sciences (NCATS), 2021)
